According to PubChem BioAssay AID1379 (National Center for Advancing Translational Sciences (NCATS), 2008):
Hit rate of the full screen: of about 200,000 compounds, about 560 (0.28%) were called active. This list was built around the results that the source calls inconclusive (neither active nor inactive); the mix of calls is not that of the screen. The call rests on the fitted dose curve; in most records, active means well fitted inhibition curve with a large enough effect; inconclusive means small, poorly fitted or top-dose-only effect; inactive means flat fitted curve, though single readings scatter. Potencies of inconclusive entries are left out as doubtful fits.

Target: Luciferin 4-monooxygenase (Photuris pensylvanica) (UniProt Q27757)
Test: Counterscreen for Luciferase (Kinase-Glo TM) Inhibition; further: nearly all actives have a fitted effect of over 60% in size
Conditions: ATP luminescence, 8 min; series mostly up to 38.3 µM
How it was run: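 Light output from Kinase-Glo luciferase with luciferin and 10 uM ATP in 50 mM imidazole pH 7.2, KCl, MgCl2, Tween 20, BSA; compound pin-delivered, 8-min ambient incubation, then luminescence read.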
Potency means the concentration at half of the fitted maximal effect; tags describe the fitted curve by direction and shape.

Row | Structure (SMILES) | Potency
1 | N=C1C=CC(=C(c2ccc(N)cc2)c2ccc(N)cc2)C=C1 | inconclusive [inhibitor, partial curve]
2 | O=c1c(Cl)c(NCCCO)cnn1-c1nc2ccccc2[nH]1 | active: 11.2 µM
3 | Nc1ccc(C2=Nc3cccc4cccc(c34)N2)cc1 | inconclusive [inhibitor, partial curve]
4 | CC(C)c1cc(C(=O)Nc2cccnc2)no1 | inconclusive [inhibitor, partial curve]
5 | O=C(O/N=C1/CCSc2ccccc21)c1ccc(F)cc1 | inconclusive [inhibitor, single point]
6 | O=C1CCOc2cc(OCc3ccccc3)ccc21 | inconclusive [inhibitor, single point]
7 | COc1ccc(NC(=O)Cc2coc3cc(C)ccc23)cc1S(=O)(=O)N1CCOCC1 | inactive
8 | C/C(=N\NC(=O)c1ccc2c(c1)OCO2)c1ccco1 | inconclusive [inhibitor, single point]
9 | N#C/C(C(N)=O)=c1/ccc2c(c1)N1C3=C(CCCC3)CC3CCCCC31N=2 (configuration not stated) | inconclusive [inhibitor, single point]
10 | CC(C)N=C1NN=C(c2ccc(F)cc2)CS1 | active: 10 µM
11 | NC(=O)c1cccc2cc3ccccc3cc12 | inactive
12 | C=CCOc1ccc(C2c3c(oc4ccccc4c3=O)C(=O)N2CCCN2CCOCC2)cc1 (configuration not stated) | inactive
13 | CCOc1ccccc1N/C(=C(/C(Cl)=C(Cl)Cl)[N+](=O)[O-])n1cncn1 | inactive
14 | O=C(N/N=C/c1ccc2c(c1)OCO2)c1ccc(Br)o1 | inconclusive [inhibitor, partial curve]
15 | CC(C)(C)C(=O)Nc1ccc(-c2cn3ccsc3n2)cc1 | inconclusive [inhibitor, partial curve]
16 | Cc1csc(NC(=O)c2ccc(N3CCCC3=O)cc2)n1 | active: 12.6 µM
17 | CCc1ccc(C2CC(c3ccco3)=NN2S(C)(=O)=O)cc1 (configuration not stated) | active: 11.2 µM
18 | CN(C)c1ccc(N/C=C/C(=O)c2ccco2)cc1 | active: 3.55 µM
19 | CC(=O)c1cccc2c(O)c(C3=Nc4ccccc4C3=O)[nH]c12 | inconclusive [inhibitor, single point]
20 | COc1ccccc1CC(=N)N1C[C@@H]2C(=O)CCC(c3ccccc3)(c3ccccc3)[C@@H]2C1 | inactive
21 | N#Cc1ccc(-c2csc(NNC(=O)c3ccccc3)n2)cc1 | inactive
22 | Nc1nn2cc(-c3ccccc3)nc2c2ccccc12 | inconclusive [inhibitor, partial curve]
23 | CC(=O)c1sc(NC(=O)c2ccccc2C)nc1C | inconclusive [inhibitor, single point]
24 | CCC(c1nnnn1CC1CCCO1)N(CCCO)Cc1cc2cccc(C)c2[nH]c1=O (configuration not stated) | inactive
25 | O=C(Nc1nc2c(F)cc(F)cc2s1)c1ccccn1 | inconclusive [inhibitor, partial curve]
26 | O=C(Nc1nc2ccccc2s1)c1cnccn1 | active: 7.94 µM

Row | Structure (SMILES) | Potency
27 | COc1ccccc1N1CCN(C(=O)/C=C/c2cccs2)CC1 | inactive
28 | COc1ccc(-c2cn3cccc(C)c3n2)cc1F | inconclusive [inhibitor, partial curve]
29 | Cc1ccc(NC(=O)C(=O)Nc2ccccn2)cc1 | inconclusive [inhibitor, single point]
30 | Cc1cccc(NC2=C/C(=N/S(=O)(=O)c3cccs3)c3ccccc3C2=O)c1 | inconclusive [inhibitor, partial curve]
31 | CC(=O)c1ccc(NC(=O)CSc2nc(N)c3cc4c(nc3n2)CCCC4)cc1 | inconclusive [inhibitor, partial curve]
32 | CCCOC(=O)c1ccc(NC(=O)c2ccoc2C)cc1 | inconclusive [inhibitor, partial curve]
33 | Cc1ccc(-c2nn(-c3ccccc3)cc2C(=O)Nc2ccc(C(=O)O)cc2)cc1 | inactive
34 | C=CCN=C1NN=C(c2ccc3c(c2)OCCO3)CS1 | active: 10 µM
35 | Cc1cc2nc(-c3ccc(SCC(=O)NC(C)C)nc3)[nH]c2cc1C | inconclusive [inhibitor, partial curve]
36 | CCC1(C)N=C(c2ccc3c(c2)OCO3)CC(c2ccccc2O)N1 (configuration not stated) | inconclusive [inhibitor, partial curve]
37 | Cc1onc(-c2ccccc2Cl)c1C(=O)Nc1nnc(-c2ccc(Cl)cc2Cl)s1 | inactive
38 | Clc1ccc(-c2cn3c(n2)-c2ccccc2C3)cc1Cl | inconclusive [inhibitor, single point]
39 | O=c1[nH]c2ccccc2nc1CCc1ccccc1 | inactive
40 | O=C(Nc1ccccc1)c1ccc2c(c1)OCCO2 | inconclusive [inhibitor, partial curve]
41 | CC(C)c1ccc(-n2nc3ccc(N)cc3n2)cc1 | inactive
42 | Cc1ccccc1C(=O)NNC1=NCCC1 | inactive
43 | CN(C)/C=N/C(=S)Nc1ccccc1 | inactive
44 | CCN1/C(=C2\C(=O)N(C)C(=S)N2C)C=Cc2cc(C)ccc21 | inconclusive [inhibitor, partial curve]
45 | CCOc1ccc(-c2cc(C(=O)N3CCN(C)CC3)c3ccccc3n2)cc1 | inconclusive [inhibitor, partial curve]
46 | COCCn1c(SCCOc2ccccc2)nc2ccccc2c1=O | inactive
47 | N#CC1=C2SCN(c3ccccc3)CN2C(=O)CC1c1cccs1 (configuration not stated) | inactive
48 | CCCc1nc2ccccc2c(=O)n1/N=C/c1c(C)[nH]n(-c2ccc(C)cc2)c1=O | inconclusive [inhibitor, single point]
49 | N/C(=N\OC(=O)c1ccccc1Cl)c1ccccn1 | active: 11.2 µM
50 | Cn1nccc1C(=O)Nc1ccc2c(c1)OCCO2 | active: 12.6 µM
51 | COc1ccc2c(=O)c(-c3nc(C)cs3)coc2c1 | inconclusive [inhibitor, partial curve]
52 | Cc1cccc(C(=O)Nc2ccccc2C(=O)OCC(=O)Nc2ccc(C#N)cc2)c1 | inactive
